According to patent publication US20240050583A1, “PROTEIN-DRUG CONJUGATE AND SITE-SPECIFIC CONJUGATING METHOD” (HARBOUR BIOMED (SHANGHAI) CO., LTD, priority 2020, published 2024):

T1: HEK293T-hBCMA cells highly expressing human BCMA (Homo sapiens, UniProt Q02223)
T1 construct: host or cells: HEK293T-hBCMA
T1 sequence (Q02223 1-184): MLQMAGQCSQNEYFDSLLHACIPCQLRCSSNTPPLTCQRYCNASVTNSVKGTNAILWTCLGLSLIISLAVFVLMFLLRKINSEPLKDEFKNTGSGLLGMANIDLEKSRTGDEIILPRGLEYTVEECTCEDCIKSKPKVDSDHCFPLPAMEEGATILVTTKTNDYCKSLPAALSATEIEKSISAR

T2: HCC1954 cells highly expressing human 5T4 (Homo sapiens, UniProt Q13641)
T2 construct: a human breast cancer cell strain HCC1954 (ATCC, CRL-2338) highly expressing human 5T4; host or cells: HCC1954
T2 sequence (Q13641 32-420): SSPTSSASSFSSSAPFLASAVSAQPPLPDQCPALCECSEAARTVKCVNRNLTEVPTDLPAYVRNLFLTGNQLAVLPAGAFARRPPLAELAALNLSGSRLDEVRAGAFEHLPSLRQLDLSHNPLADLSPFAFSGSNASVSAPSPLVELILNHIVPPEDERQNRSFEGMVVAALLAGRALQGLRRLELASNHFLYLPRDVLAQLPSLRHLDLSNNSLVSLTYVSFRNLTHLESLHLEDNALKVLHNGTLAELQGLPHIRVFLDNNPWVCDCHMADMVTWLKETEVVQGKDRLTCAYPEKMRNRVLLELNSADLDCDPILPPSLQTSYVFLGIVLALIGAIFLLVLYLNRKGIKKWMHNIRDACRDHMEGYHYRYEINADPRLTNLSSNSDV


Tests used:
SNU-16 cells = assay: Cytotoxic killing experiment (Example 7.5), SNU-16; format: cell-based, human; conditions: 72 h, CellTiter-Glo
Protocol: (§1) The NCI-H929 cells and SNU-16 cells were seeded in 96-well plates (Perkin Elmer, #6005225) respectively, with the following seeded cell numbers: 10000 cells/50 PL/well (NCI-H929), 5000 cells/50 μL/well (SNU-16), 10000 NCI-H929 cells and 5000 SNU-16 cells/100 PL/well mixture (NCI-H929+SNU-16). Then, a test sample serially pre-diluted was added at 50 μL/well, with concentrations of 1 μg/mL, 0.1 μg/mL and 0.01 μg/mL for PR001046 and PR001046-ADC, and concentrations of 10 nM, 1 nM and 0.1 nM for mc-vc-PAB-MMAE. Thereafter, the plates were incubated at 37° C. with 5% CO2 for 72 h, a CellTiter-Glo cell viability detection reagent (Promega, #G7573) was added, then the plates were incubated at room temperature for at least 10 min to obtain stable luminescence signals, and the luminescence values were detected using a microplate reader. The data were processed and analyzed by plotting using a GraphPad Prism 8 software. In this example, multiple groups of different PR001046-ADC samples were used, including samples containing different percentages of DAR=2 (D2) components before or after purification.

[1] = molecular target: T1, HEK293T-hBCMA cells highly expressing human BCMA; assay: FACS binding to HEK293T-hBCMA cells; conditions: flow cytometry FACS
Protocol: (§2) Specifically, the cells were digested and resuspended in a DMEM complete medium, and the cell density was adjusted to 1×10^6 cells/mL. The cells were seeded in a 96-well V-bottom plate (Corning, #3894) at 100 μL/well, followed by the addition of test antibodies diluted in a 3-fold gradient at a concentration that was 2 times the final concentration, each at 100 μL/well. The cells were incubated at 4° C. for 1 h away from light. Thereafter, the cells in each well were rinsed twice with 100 μL of pre-cooled PBS, and centrifuged at 500 g at 4° C. for 5 min, and then the supernatant was discarded. Thereafter, a fluorescent secondary antibody (Alexa Fluor 488-conjugated AffiniPure Goat Anti-Human IgG, Fcγ Fragment Specific, Jackson ImmunoResearch Inc., #109-545-098, diluted in a 1:500 ratio) was added at 100 μL/well, and the plate was incubated at 4° C. for 30 min away from light. The cells in each well were then rinsed twice with 100 μL of pre-cooled PBS and centrifuged at 500 g at 4° C. for 5 min, and then the supernatant was discarded. Finally, the cells in each well were resuspended in 200 μL of pre-cooled PBS. Fluorescence signal values were read using a BD FACS CANTOII flow cytometer, and the data were processed and analyzed using FlowJo v10 (FlowJo, LLC) software.

[2] = test system: mixed cells of NCI-H929 and SNU-16; assay: Cytotoxic killing experiment (Example 7.5), mixed NCI-H929 + SNU-16; format: cell-based, human; conditions: 72 h, CellTiter-Glo; 0.1 μg/mL and above
Protocol: as §1

NCI-H929 cells [3] = assay: Cytotoxic killing experiment (Example 7.5), NCI-H929; format: cell-based, human; conditions: 72 h, CellTiter-Glo; PR001046-ADC at 0.1 μg/mL and above; PR001046 0.01-1 μg/mL; mc-vc-PAB-MMAE 0.1-10 nM
From the text: The data were processed and analyzed by plotting using a GraphPad Prism 8 software. In this example, multiple groups of different PR001046-ADC samples were used, including samples containing different percentages of DAR=2 (D2) components before or after purification.

[4] = molecular target: T2, HCC1954 cells highly expressing human 5T4; assay: FACS binding to cells highly expressing 5T4; conditions: flow cytometry FACS
Protocol: as §2, with “Specifically,” for “Specifically, the cells were digested and resuspended in a DMEM complete medium, and”

NCI-H929 cells [5] = assay: Cytotoxic killing experiment (Example 9.5), NCI-H929; conditions: 72 h, CellTiter-Glo; proteins up to 10 nM, mc-vc-PAB-MMAE up to 20 nM
Protocol: (§3) The HEK293T-hBCMA, NCI-H929, HEK293T and SNU-16 cells were seeded in 96-well plates (Perkin Elmer, #6005225) respectively, with the following seeded cell number: 2500 cells/50 μL/well (HEK293T-hBCMA), 5000 cells/50 μL/well (NCI-H929), 2500 cells/50 μL/well (HEK293T), and 5000 cells/50 μL/well (SNU-16). Then, the plates were incubated overnight at 37° C. with 5% CO2. Then, a test sample serially pre-diluted was added at 50 μL/well. PR004433, PR004433-ADC and PR004432-ADC were diluted at a 3-fold concentration gradient from the highest final concentration of 10 nM, and mc-vc-PAB-MMAE was diluted at a 3-fold concentration gradient from the highest final concentration of 20 nM. In addition, a well without the test sample was set as a control well. Thereafter, the plates were incubated at 37° C. with 5% CO2 for 72 h, a CellTiter-Glo cell viability detection reagent (Promega, #G7573) was added, then the plates were incubated at room temperature for at least 10 min to obtain stable luminescence signals, and the luminescence values were detected using a microplate reader. The cell viability was calculated based on the luminescence values by the following formula:
Cell viability (%)=(A/B)×100%
In which, A=experimental well (target cells+test sample+medium); B=control well (target cells+medium)
(§4) The data were processed and analyzed by plotting using GraphPad Prism 8 software, and binding curves of the antibodies to target cells, EC50 values and other parameters were obtained through four-parameter nonlinear fitting.
In this example, the method described in 0 was used to study the specific cell killing activity of antigen-binding proteins PR006468 (including a mouse IgG2c hinge region), PR004433 (including a human IgG1 hinge region) and coupling products PR006468-ADC and PR004433-ADC thereof against tumor cells NCI-H929 (ATCC, CRL-9068) highly expressing human BCMA.
In this example, the method described in 0 was used to study the specific cell killing activity of PR005744 and a coupling product PR005744-ADC thereof against tumor cells NCI-H929 (ATCC, CRL-9068) highly expressing human BCMA.

[6] = Melting temperature (Tm) by Uncle protein stability platform; format: physicochemical
From the text: Unchained Labs (Uncle) is a multifunctional one-stop protein stability analysis platform that characterizes protein stability by total fluorescence, static light scattering (SLS) and dynamic light scattering (DLS) assay methods. The parameters of melting temperature (Tm), aggregation temperature (Tagg) and particle size (diameter) can be obtained simultaneously for the same group of samples. In this example, an “Tm & Tagg with optional DLS” application of Uncle was selected for the determination. 9 μL of sample was added to a Uni tube, and the temperature was set to gradually increase from 25° C. to 95° C. at a gradient of 0.3° C./min. Four acquisitions of data were performed at the beginning and end of DLS assay, each for 5 s. After the experimental run was finished, the Tm value of each sample was calculated according to a barycentric mean (BCM) formula using the Uncle analysis software, the Tagg value was calculated from a curve (aggregation curve) of fluorescence intensity of SLS at the wavelength of 266 nm or 473 nm, and the particle size and dispersion of the samples were calculated from DLS related functions.
This example is to study the influence of the disulfide bond of Cys-220 on molecular structural stability. […]

HCC1954 cells = assay: Cytotoxic killing experiment (Example 8.5), HCC1954; conditions: 72 h, CellTiter-Glo; proteins up to 30 nM, mc-vc-PAB-MMAE up to 60 nM
Protocol: This example was to study the cell killing activity of the anti-5T4 antibody coupling product PR004432-ADC against a human breast cancer cell strain HCC1954 (ATCC, CRL-2338) highly expressing human 5T4.
The HCC1954 cells were seeded in a 96-well plate (Perkin Elmer, #6005225) at 4000 cells/50 μL/well and incubated overnight at 37° C. with 5% CO2. Then, a test sample serially pre-diluted was added at 50 μL/well. PR004432, PR004432-ADC and PR004433-ADC were diluted at a 3-fold concentration gradient from the highest final concentration of 30 nM, and mc-vc-PAB-MMAE was diluted at a 3-fold concentration gradient from the highest final concentration of 60 nM. In addition, a well without the test sample was set as a control well. Thereafter, the plates were incubated at 37° C. with 5% CO2 for 72 h, a CellTiter-Glo cell viability detection reagent (Promega, #G7573) was added, then the plates were incubated at room temperature for at least 10 min to obtain stable luminescence signals, and the luminescence values were detected using a microplate reader. The cell viability was calculated based on the luminescence values by the following formula:
Cell viability (%)=(A/B)×100% […]
as §4

HEK293T-hBCMA cells = assay: Cytotoxic killing experiment (Example 9.5), HEK293T-hBCMA; conditions: 72 h, CellTiter-Glo; proteins up to 10 nM, mc-vc-PAB-MMAE up to 20 nM
Protocol: as §3, with “formula: […]” for “formula:”
as §4

| Molecule | cell killing of BCMA-negative cells SNU-16 (SNU-16 cells) | binding activity to HEK293T-hBCMA cells [1] | cell killing of mixed cells of NCI-H929 and SNU-16 [2] | cell killing of BCMA-positive cells NCI-H929 (NCI-H929 cells [3]) | binding activity to HCC1954 cells [4] | cytotoxic killing against NCI-H929 cells (NCI-H929 cells [5]) | Tm1 (minimum melting temperature) [6] [°C] | cytotoxic killing against HCC1954 cells (HCC1954 cells) | cytotoxic killing against HEK293T-hBCMA cells (HEK293T-hBCMA cells) |
| --- | --- | --- | --- | --- | --- | --- | --- | --- | --- |
| PR001046-ADC (conjugate) heavy: EVQLVETGGGLIQPGGSLRLSCAASGFTVSDNYMTWVRQAPGKGLEWVSVIFSGGNTYYADSVKGRFTISRDNAKNTLYLQMNSLRAEDTALYYCARRNYDDTRGTDVFDIWGQGTMVTVSS[not shown - human IgG1 Fc] | cannot kill | strong specific binding activity | can specifically kill | can specifically kill |  |  |  |  |  |
| PR004432-ADC (conjugate) heavy: EVQLQQSGPGLVKPSQTLSLTCAISGDSVSNNYAAWNWIRQSPSRGLEWLGRTYYRSKWYNDYAVSVKSRITINPDTSKNQFSLQLNRVTPEDTAVYYCARDNYYGSGSPPVDALDIWGQGTMVTVSS[not shown - human IgG1 Fc] |  |  |  |  | strong specific binding activity | cannot produce effective killing | 70.43 | effective and specific cytotoxic killing | cannot produce effective killing |
